{"source": "PubChem BioAssay AID1461", "about": "(National Center for Advancing Translational Sciences (NCATS), 2008)", "note": "Among all 220,000 compounds or so, about 2,300 (1%) were called active. The shares of active, inactive and inconclusive entries below differ from those in the screen. The call rests on the fitted dose curve; in most records, active means well fitted inhibition curve with a large enough effect; inconclusive means small, poorly fitted or top-dose-only effect, or effect the other way; inactive means no such curve, though single readings can be large or run the other way. Potencies beside an inconclusive call are fits to weak or partial responses and may not hold up. On the % scale 0 is the no-effect control and ±100 the full control effect; potency means the concentration at half of the fitted maximal effect; tags describe the fitted curve by direction and shape."}
{"target": "Neuropeptide S receptor (Homo sapiens) (UniProt Q6W5P4)", "sequence (Q6W5P4 whole entry, looked up)": "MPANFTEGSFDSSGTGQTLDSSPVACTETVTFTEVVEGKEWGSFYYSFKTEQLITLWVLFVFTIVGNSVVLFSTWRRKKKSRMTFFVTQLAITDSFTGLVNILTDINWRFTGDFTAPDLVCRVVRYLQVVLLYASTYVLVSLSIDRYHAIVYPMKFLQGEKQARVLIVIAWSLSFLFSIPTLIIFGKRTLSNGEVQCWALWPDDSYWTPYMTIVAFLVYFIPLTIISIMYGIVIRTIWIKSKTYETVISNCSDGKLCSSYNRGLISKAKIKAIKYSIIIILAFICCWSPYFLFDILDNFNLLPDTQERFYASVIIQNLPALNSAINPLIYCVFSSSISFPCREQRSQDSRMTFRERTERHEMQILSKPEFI", "test": "qHTS Assay for Antagonists of the Neuropeptide S Receptor: cAMP Signal Transduction; further: nearly all actives have a fitted effect of over 50% in size", "settings": "CHO-NPSR cells, cAMP TR-FRET, antagonist mode; activity change, negative = inhibition: at 38.3 µM (top of the series) unless noted"}
{"smiles": "COc1cc(OC)cc(C(=O)Nc2nnc(NC(=S)Nc3ccccc3)s2)c1", "Potency": "inconclusive: 10 µM [inhibitor, single point]"}
{"smiles": "CCOc1ccc(Nc2oc(-c3ccc(Cl)cc3)nc2C#N)cc1", "Potency": "inactive"}
{"smiles": "Cc1cc2c(N=O)c(NO)ccc2[nH]1", "Potency": "inconclusive: 12.6 µM [inhibitor, single point]"}
{"smiles": "CSc1nc(N(C)NC(=O)c2cccc(C)c2)c2ccccc2n1", "Potency": "inconclusive: 1.26 µM [activator, full curve]"}
{"smiles": "CCOc1ccc(-c2nnc3sc(COc4ccc(C)cc4)nn23)cc1", "Potency": "inconclusive: 12.6 µM [inhibitor, partial curve]"}
{"smiles": "CC(=O)Nc1cc(OC(C)=O)c2nonc2c1OC(C)=O", "Potency": "inconclusive: 10 µM [inhibitor, single point]"}
{"smiles": "CCOc1nc(-c2ccccc2)ccc1-c1noc(-c2ccco2)n1", "Potency": "inactive"}
{"smiles": "CCOC(=O)C(C)Oc1cccc2c(=O)n(CC(=O)NCc3ccccc3)ccc12", "note": "(stereo not given)", "Potency": "inactive"}
{"smiles": "Cc1ccc(N=Nc2ccc(C)cc2NC(=O)Nc2ccccc2F)cc1", "Potency": "inactive"}
{"smiles": "CCN(CC)S(=O)(=O)c1ccc(N2CCOCC2)c(NS(=O)(=O)c2ccc(C(C)C)cc2)c1", "Potency": "inactive"}
{"smiles": "Cc1cc(C(=O)OCn2nnc3ccccc3c2=O)c(C)n1-c1ccccc1", "Potency": "inconclusive: 20 µM [inhibitor, partial curve, poor fit]"}
{"smiles": "CC(C)CCn1c(Oc2ccccc2Cl)nc2c1c(=O)n(C)c(=O)n2C", "Potency": "inconclusive: 12.6 µM [inhibitor, single point]"}
{"smiles": "CC1=CC(C)(C)N(S(=O)(=O)c2ccc(F)cc2)c2ccccc21", "Potency": "inconclusive: 10 µM [inhibitor, single point]"}
{"smiles": "O=C(Nc1ccc2c(c1)OCO2)C1CCN(C(=O)c2ccc(Br)cc2)CC1", "Potency": "inactive"}
{"smiles": "CC1(C(=O)O)CCC(C(=O)N2CCOCC2)C1(C)C", "note": "(stereo not given)", "Potency": "inconclusive: 0.0316 µM [inhibitor, full curve, poor fit]"}
{"smiles": "C=CCn1c(NC(=O)c2ccc(C)cc2)c(C#N)sc1=N", "Potency": "inconclusive: 5.01 µM [inhibitor, partial curve, poor fit]"}
{"smiles": "O=C(Nc1ccc(-n2ccc(C(F)(F)F)n2)cc1)Nc1cccc(Cl)c1", "Potency": "inconclusive: 10 µM [activator, single point]"}
{"smiles": "Cc1ccc(N(CC(=O)Nc2ccc(-c3nc4ccc(C)cc4s3)cc2)S(C)(=O)=O)cc1", "Potency": "inconclusive: 12.6 µM [inhibitor, single point]"}
{"smiles": "O=C(Oc1ccc(N(Cc2cccs2)C2=NS(=O)(=O)c3ccccc32)cc1)c1ccco1", "Potency": "inactive"}
{"smiles": "N#Cc1c(-c2ccccc2)c(-c2ccccc2)nn(CC(=O)NNC(=O)Nc2ccc(Cl)c(Cl)c2)c1=O", "Potency": "inconclusive: 1 µM [inhibitor, full curve, poor fit]"}
{"smiles": "CC(=O)C(=Cc1ccc(O)cc1)C(C)=O", "Potency": "inactive"}
{"smiles": "CCCCn1c(-c2csc3c2CCC(C)C3)n[nH]c1=S", "note": "(stereo not given)", "Potency": "inconclusive: 25.1 µM [activator, single point]"}
{"smiles": "Cc1ccc(S(=O)(=O)/N=C2/C=C(C3C(=O)CC(C)(C)CC3=O)C(=O)c3ccccc32)cc1", "Potency": "inconclusive: 12.6 µM [inhibitor, single point]"}
{"smiles": "CC1=NN(c2ccccc2)C(=O)/C1=C\\N1CC(C)OC(C)C1", "note": "(stereo not given)", "Potency": "inactive"}
{"smiles": "Cc1cccc(CSc2nnc([C@@H]3CCCN3C(=O)OC(C)(C)C)o2)c1", "Potency": "inconclusive: 25.1 µM [inhibitor, single point]"}
{"smiles": "COc1ccccc1CN1CCNC(=O)C1CC(=O)NCCCn1cccn1", "note": "(stereo not given)", "Potency": "inactive"}
{"smiles": "CCNC(=O)[C@H]1O[C@@H](n2cnc3c(N)nc(NCCc4ccc(CCC(=O)O)cc4)nc32)[C@H](O)[C@H]1O", "activity change, negative = inhibition": "inconclusive: -48.5% [inhibitor] [at 46.1 µM]"}
{"smiles": "CC1(C)Cc2c(cnn2-c2ccccc2)C(=O)/C1=N\\NC(=O)c1ccccc1", "Potency": "inconclusive: 10 µM [inhibitor, single point]"}
{"smiles": "O=c1sc(N2CCN(c3ccccc3F)CC2)nc2ccsc12", "Potency": "inconclusive: 10 µM [inhibitor, single point]"}
{"smiles": "O=C(CSc1nnc(-c2cccnc2)o1)c1cc2ccccc2oc1=O", "Potency": "inconclusive: 20 µM [inhibitor, single point]"}
{"smiles": "COc1cc(O)oc1C=Nc1ccc(Cl)cc1Cl", "Potency": "inconclusive: 25.1 µM [inhibitor, single point]"}
{"smiles": "O=C(/C=C/c1ccccn1)c1cc(Br)ccc1O", "Potency": "inconclusive: 25.1 µM [activator, single point]"}
{"smiles": "Nc1nnc(-c2ccc(Cl)cc2)o1", "Potency": "inactive"}
{"smiles": "CCOC(=O)c1c(CSC(=N)N)n(-c2ccccc2)c2cc(Br)c(OC(C)=O)cc12", "Potency": "inconclusive: 25.1 µM [inhibitor, single point]"}
{"smiles": "CCC(c1nnnn1Cc1ccccc1)N1CCN(C(=O)c2ccco2)CC1", "note": "(stereo not given)", "activity change, negative = inhibition": "inactive: -7.15% [at 7.67 µM]"}
{"smiles": "O=C(NC1CC1)c1cccc(Nc2ccc(-c3ccc4c(c3)OCCO4)nn2)c1", "Potency": "inconclusive: 25.1 µM [inhibitor, single point]"}
{"smiles": "COc1ccc(-n2cc(CNCc3cnc4ccccn34)c(-c3cccc(F)c3)n2)cc1", "Potency": "inconclusive: 15.8 µM [activator, single point]"}
{"smiles": "CC(C)(C)N=C1C([N+](=O)[O-])=CC=C2C1=NC1(CCCCC1)N2O", "Potency": "inactive"}
{"smiles": "CCN(CC)CC#CCOC(=O)C(O)(c1ccccc1)C1CCCCC1", "note": "(stereo not given)", "Potency": "inconclusive: 10 µM [inhibitor, partial curve]"}
{"smiles": "COc1ccc(C(CC(=O)N2CCOCC2)c2c(OC)cc(OC)c3c(-c4ccccc4)cc(=O)oc23)cc1", "note": "(stereo not given)", "Potency": "inactive"}
{"smiles": "CCOc1ccccc1NC(=O)CSc1nnc(-c2cnccn2)n1CC", "Potency": "inactive"}
{"smiles": "CC1(C)Cc2nc3sc4c(SCC(=O)O)ncnc4c3cc2CO1", "Potency": "inconclusive: 3.98 µM [activator, single point]"}
{"smiles": "Cc1ccccc1N1CC(C(=O)Nc2nnc(SCC(=O)Nc3nccs3)s2)CC1=O", "note": "(stereo not given)", "Potency": "inactive"}
{"smiles": "CN(C)C(=O)COc1ccc2cc(-c3ccccc3)c(=O)oc2c1", "Potency": "inactive"}
{"smiles": "O=C(N/N=C\\c1ccc(Cl)cc1Cl)c1sccc1-n1cccc1", "Potency": "inconclusive: 10 µM [inhibitor, single point]"}
